# Experimental data: PubChem BioAssay (NCI)
#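 Assay format: 96-well plates, 48-hour exposure. TGI is the concentration that stops growth completely.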 A number of entries come with more than one value. The other results are left out here. There may be further records. The tests behind the records often covered other concentration ranges, which the source does not state; some values may only mark the edge of a range.
# Tests used:
# [1] = tested on: LOX IMVI melanoma; assay: inhibition of tumour cell growth, NCI panel, 48 h
# [2] = tested on: NCI-H226 lung; assay: inhibition of tumour cell growth, NCI panel, 48 h
smiles,measurement,setting,value
C[C@@H]1C[C@H]2C(=O)OCC(NC(=O)[C@H](Cc3cc(F)cc(F)c3)NC(=O)Nc3ccc(Cl)cc3F)C(=O)N3CCC[C@H]3C(=O)N3CCCC[C@H]3C(=O)N[C@@H](C)C(=O)N2C1 (some centres not stated),TGI,[1],2.13 µM and 21.5 µM
same,TGI,[2],32 µM and 1.84 µM
